In PubChem BioAssay AID624417 (National Center for Advancing Translational Sciences (NCATS), 2012):
The campaign covered roughly 410,000 compounds. About 6,400 (1.6%) were called active. Inconclusive results, whose numbers are uncertain, are shown with a selection of clear calls. The call rests on the fitted dose curve; in most records, active means well fitted inhibition curve with a large enough effect; inconclusive means small, poorly fitted or top-dose-only effect; inactive means no such curve, though single readings can be large or run the other way. No potency is given beside an inconclusive call; the fits are too rough.

molecular target: Glucagon-like peptide 1 receptor (Homo sapiens) (UniProt P43220); test: qHTS of GLP-1 Receptor Inverse Agonists (Inhibition Mode); conditions: HEK293 GLP-1R CRE-luciferase, luminescence, 24 h, GLP-1R form is constitutively active; series mostly up to 38.3 µM; further: nearly all actives have a fitted effect of over 55% in size
Sequence of UniProt P43220 (P43220 whole entry, looked up): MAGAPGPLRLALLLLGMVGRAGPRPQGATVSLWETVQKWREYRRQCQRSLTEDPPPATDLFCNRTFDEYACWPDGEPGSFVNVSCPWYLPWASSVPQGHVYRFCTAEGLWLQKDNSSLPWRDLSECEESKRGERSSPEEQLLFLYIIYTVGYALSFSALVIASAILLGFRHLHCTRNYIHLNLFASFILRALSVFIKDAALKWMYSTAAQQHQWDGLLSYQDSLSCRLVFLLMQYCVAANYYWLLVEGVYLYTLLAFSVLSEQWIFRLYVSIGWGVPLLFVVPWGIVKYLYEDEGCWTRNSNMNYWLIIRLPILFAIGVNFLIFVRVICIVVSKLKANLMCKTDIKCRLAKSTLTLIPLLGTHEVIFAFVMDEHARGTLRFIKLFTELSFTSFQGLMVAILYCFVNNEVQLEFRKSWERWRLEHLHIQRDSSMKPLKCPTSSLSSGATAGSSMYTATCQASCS
How it was run: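 Assay principle: reduced luminescence from a cAMP-responsive reporter in HEK293 cells co-expressing a constitutively active GLP-1R. Conditions: 24 hr compound incubation, 37 deg C, 5% CO2.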
Potency means the concentration at half of the fitted maximal effect; tags describe the fitted curve by direction and shape.

SMILES | Potency
O=C(C1CCCCCC1)N1CC[C@@H](N2CCC(O)CC2)[C@H](O)C1 | inactive
Cc1ccc(NC(=O)CSc2nnc(C)n2-c2ccccc2)cc1 | inconclusive [inhibitor, partial curve, poor fit]
COc1ccc(OCc2ccc(-c3nc(C#N)c(N4CCC(C(N)=O)CC4)o3)o2)cc1 | inactive
Cc1ccc(SCCCn2cnc3ccccc3c2=O)cc1 | inconclusive [inhibitor, single point]
COc1ccc(NCc2nnc(SCc3ccccc3)n2-c2ccc(OC)cc2)cc1 | inconclusive [inhibitor, single point]
O=c1cc(C(F)(F)F)[nH]c2ccc(OC(F)(F)F)cc12 | inconclusive [inhibitor, single point]
CCOCCCn1c(=S)[nH]c2cc(C(=O)NCCN(CC)CC)ccc2c1=O | inactive
Cc1ccc(NC(=O)CC(C)c2ccccc2)cc1S(=O)(=O)N1CCOCC1 (stereo not drawn) | inconclusive [inhibitor, partial curve, poor fit]
Cc1nnc(Sc2cc(NCCO)c([N+](=O)[O-])c3nonc23)s1 | inconclusive [inhibitor, single point]
O=C1CC(=O)N(Cc2ccco2)C(=O)N1 | inactive
CCC(C)NC(=O)CSc1nc(-c2cccs2)cc(C(F)(F)F)n1 (stereo not drawn) | inconclusive [inhibitor, partial curve, poor fit]
COc1ccc(C2c3c(n(C)c4ccccc34)C(=O)N2CC(=O)Nc2ccccc2Cl)cc1 (stereo not drawn) | inconclusive [inhibitor, single point]
O=C(NCc1cccc(Cl)c1)C1Cc2c(-c3ccccc3Oc3ccccc3)ccnc2O1 (stereo not drawn) | inconclusive [inhibitor, partial curve, poor fit]
CCc1nc2oc(C(=O)c3ccccc3)c(N)c2c2c1COC(C)(C)C2 | inactive
COc1cc(/C(=C/c2ccccc2)c2ccccc2)c2c(c1)oc1ccccc12 | inconclusive [inhibitor, single point]
Cn1c2ccccc2c2cc([N+](=O)[O-])ccc21 | inactive
COc1ccc(NC(=O)NC23CC4CC(CC(C4)C2)C3)cc1OC | inconclusive [inhibitor, partial curve, poor fit]
CN1CCN(S(=O)(=O)c2ccc(NC(=O)Nc3cccc(Cl)c3)cc2)CC1 | inconclusive [inhibitor, partial curve, poor fit]
CCCc1c(C(=O)OCC)nnc2c(-c3ccccc3)c(C)nn12 | inactive
Cc1nc([N+](=O)[O-])c(Sc2nc3ccccc3n2C)n1Cc1ccccc1 | inactive
CCCN(C(=O)c1cc2c(=O)n(CC)c3ccccc3c2s1)c1ccccc1F | inactive
CN(CC(=O)Nc1ccc(Cl)cc1)C(=O)CCNC(=O)c1ccc(Cl)cc1 | inconclusive [inhibitor, partial curve, poor fit]

SMILES | Potency
CCc1ccc(Nc2ncnc3sc4c(c23)CCCC4)cc1 | inconclusive [inhibitor, partial curve, poor fit]
O=C(c1cc(-c2ccccc2Cl)nc2ccccc12)N1CCN(c2ccccc2O)CC1 | inconclusive [inhibitor, single point]
CC[n+]1c(C)sc2cc(C)ccc21 | inactive
FCCCOc1ccc(CN2CCN(c3ccccc3F)CC2)cc1 | inactive
CC(OCC(O)CN(C)Cc1nc2ccccc2c(=O)[nH]1)c1ccc(Cl)cc1 (stereo not drawn) | active: 10 µM
CCc1cc(=O)oc2cc3occ(-c4ccc(OC)c(F)c4)c3cc12 | inconclusive [inhibitor, full curve, poor fit]
COc1cc(OC)cc(C(=O)NCC(=O)N2CCN(c3ccc(O)cc3)CC2)c1 | inconclusive [inhibitor, partial curve, poor fit]
Cc1ccc(NC(=O)COc2coc(CN3CCc4ccccc4C3)cc2=O)c(C)c1 | inconclusive [inhibitor, single point]
CC(C)(C)c1ccc(NC(=O)COC(=O)c2ccc(NS(=O)(=O)c3ccc(F)c(F)c3)cc2)cc1 | inconclusive [inhibitor, single point]
Cc1nnc(N2CCC(C(=O)N3CCCCC3)CC2)c2nn(-c3ccccc3)c(C)c12 | inactive
OC(CNc1ccnc2cc(Cl)ccc12)CNC1CCCCC1 (stereo not drawn) | inconclusive [inhibitor, full curve]
Cc1ccc(NC(=O)c2cc3c(s2)CCC3)cc1S(=O)(=O)N1CCOCC1 | inconclusive [inhibitor, single point]
Fc1ccc([C@@H]2Nc3ccccc3[C@@H]3C=CC[C@@H]32)cc1 | inactive
CCOc1ccc(/C=C/C(=O)c2cc(Br)ccc(=O)c2O)cc1 | inconclusive [inhibitor, single point]
CCN(CC)CCNC(=O)c1ccc(NC(=O)c2ccc(S(=O)(=O)N3CCCCCC3)cc2)cc1 | inconclusive [inhibitor, partial curve, poor fit]
Cc1ccc(Nc2cc(C)nc(N3CCOCC3)n2)c(C)c1 | inconclusive [inhibitor, single point]
Cc1ccc(-c2c(C)sc3ncn(CC(=O)N4CCOCC4)c(=O)c23)cc1C | inconclusive [inhibitor, partial curve, poor fit]
Cc1ccc(NS(=O)(=O)c2ccc(NC(=O)C3CC3)cc2)cc1C | inconclusive [inhibitor, single point]
Cc1ccc(C)c(NC(=O)CSc2ncc3c(n2)-c2ccccc2N(Cc2ccccc2C)S3(=O)=O)c1 | inactive
COc1ccc(CCNC(=O)C2CCN(Cc3nc(-c4ccccc4C)oc3C)CC2)cc1OC | inconclusive [inhibitor, partial curve, poor fit]
CN(C)CCCN(C(=O)c1ccc(C(=O)c2ccccc2)cc1)c1nc2ccc(F)cc2s1 | inconclusive [inhibitor, partial curve, poor fit]
